Measurements as given in paper PMC12796746.
Results are given in words; binding and its absence hold for the method and conditions named. Some results given as binding are weak or reduced against the parent protein; the word gives no strength. For some assays here: Where a sequence is shown, tags or fusion partners need not be part of it.

The chains behind the UniProt entries cited, without tags or fusion partners.
UniProt Q9UNF0: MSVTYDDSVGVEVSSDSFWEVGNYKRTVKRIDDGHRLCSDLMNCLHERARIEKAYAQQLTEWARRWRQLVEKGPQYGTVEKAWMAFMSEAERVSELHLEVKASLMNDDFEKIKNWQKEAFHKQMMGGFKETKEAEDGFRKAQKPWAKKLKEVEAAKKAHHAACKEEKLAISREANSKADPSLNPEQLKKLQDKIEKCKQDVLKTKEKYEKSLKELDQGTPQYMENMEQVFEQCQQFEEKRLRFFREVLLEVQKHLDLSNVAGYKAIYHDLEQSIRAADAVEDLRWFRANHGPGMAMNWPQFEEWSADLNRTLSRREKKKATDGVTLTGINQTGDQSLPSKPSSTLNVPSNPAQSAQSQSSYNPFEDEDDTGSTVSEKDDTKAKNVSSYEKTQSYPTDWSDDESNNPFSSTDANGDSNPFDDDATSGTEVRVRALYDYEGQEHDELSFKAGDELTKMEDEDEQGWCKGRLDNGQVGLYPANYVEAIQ
UniProt P61586: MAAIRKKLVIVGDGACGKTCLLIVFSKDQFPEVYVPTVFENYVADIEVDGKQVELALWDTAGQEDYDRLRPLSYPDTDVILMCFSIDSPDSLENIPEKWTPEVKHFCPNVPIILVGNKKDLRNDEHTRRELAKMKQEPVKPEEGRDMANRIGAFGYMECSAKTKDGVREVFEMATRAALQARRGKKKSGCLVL

Legend:
Assay in all cases: peptide or protein array; HuProt Human Proteome Microarray v2.0, full-length human proteins spotted in duplicate; V5-tagged TRPV4 protein in solution at 1 μM, 1 h at 4 °C, 150 mM NaCl, 2.7 mM KCl, 25 mM Trizma base, 0.05% Tween-20, pH 7.4; detected with Alexa Fluor 647 anti-V5; hit: z-score >= 2 (N terminus: both of 2 slides; ARD constructs: at least 2 of 3 slides); both purified
[1] = biological target: PACSIN2 (human) (UniProt Q9UNF0)
[2] = biological target: T1, LOC554174 protein (human) (UniProt Q96GL5)
T1 sequence: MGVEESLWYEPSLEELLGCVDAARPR

[3] = biological target: RhoA (on the HuProt array) (human) (UniProt P61586)
[4] = biological target: T2, PKD2L2 (human) (UniProt Q9NZM6)
T2 sequence: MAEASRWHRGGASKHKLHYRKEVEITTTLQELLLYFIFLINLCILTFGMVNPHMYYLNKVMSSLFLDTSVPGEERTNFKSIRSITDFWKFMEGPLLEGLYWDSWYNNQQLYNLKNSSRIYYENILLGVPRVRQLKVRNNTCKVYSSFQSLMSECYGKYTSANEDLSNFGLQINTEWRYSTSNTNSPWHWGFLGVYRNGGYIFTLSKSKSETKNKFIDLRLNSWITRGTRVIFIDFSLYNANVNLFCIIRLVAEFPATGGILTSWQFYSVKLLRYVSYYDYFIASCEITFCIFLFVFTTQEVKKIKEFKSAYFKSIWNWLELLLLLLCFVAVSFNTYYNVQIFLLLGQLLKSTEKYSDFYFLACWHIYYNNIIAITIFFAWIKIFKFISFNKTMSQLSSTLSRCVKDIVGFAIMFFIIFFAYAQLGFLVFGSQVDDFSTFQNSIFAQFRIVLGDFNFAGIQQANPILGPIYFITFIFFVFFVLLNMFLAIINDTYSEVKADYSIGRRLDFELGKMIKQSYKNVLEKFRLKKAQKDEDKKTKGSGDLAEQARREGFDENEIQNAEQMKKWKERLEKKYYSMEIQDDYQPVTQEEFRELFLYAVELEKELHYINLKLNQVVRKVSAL

[5] = biological target: T3, Synaptotagmin-like protein 2 (human) (UniProt Q9HCH5)
T3 sequence: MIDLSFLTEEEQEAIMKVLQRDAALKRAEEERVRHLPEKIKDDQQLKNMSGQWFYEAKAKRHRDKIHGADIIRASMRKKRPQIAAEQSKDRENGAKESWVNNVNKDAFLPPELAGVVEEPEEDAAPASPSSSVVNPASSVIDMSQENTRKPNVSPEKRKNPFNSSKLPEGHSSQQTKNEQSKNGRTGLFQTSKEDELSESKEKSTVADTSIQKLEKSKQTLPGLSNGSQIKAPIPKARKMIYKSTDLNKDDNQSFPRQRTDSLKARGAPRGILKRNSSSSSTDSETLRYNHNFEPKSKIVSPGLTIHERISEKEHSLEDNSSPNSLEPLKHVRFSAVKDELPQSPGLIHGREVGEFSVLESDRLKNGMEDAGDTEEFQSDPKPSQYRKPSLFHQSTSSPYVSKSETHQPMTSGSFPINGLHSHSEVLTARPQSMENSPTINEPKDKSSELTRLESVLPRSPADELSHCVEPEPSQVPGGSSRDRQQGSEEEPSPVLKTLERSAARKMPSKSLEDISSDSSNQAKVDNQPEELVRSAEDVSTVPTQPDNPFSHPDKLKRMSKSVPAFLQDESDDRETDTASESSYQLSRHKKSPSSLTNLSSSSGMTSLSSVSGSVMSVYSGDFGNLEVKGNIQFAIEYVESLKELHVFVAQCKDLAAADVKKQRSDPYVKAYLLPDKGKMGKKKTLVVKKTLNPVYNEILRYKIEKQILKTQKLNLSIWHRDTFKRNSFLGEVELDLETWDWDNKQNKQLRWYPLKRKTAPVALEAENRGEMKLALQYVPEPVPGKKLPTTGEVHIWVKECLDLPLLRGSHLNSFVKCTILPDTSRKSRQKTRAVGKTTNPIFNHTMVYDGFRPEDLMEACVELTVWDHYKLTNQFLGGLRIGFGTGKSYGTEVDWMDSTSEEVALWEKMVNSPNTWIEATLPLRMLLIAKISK

binding [1]: no binding (tested: 1 μM)
binding [2]: binds
binding [3]: no binding (tested: 1 μM)
binding [4]: no binding (tested: 1 μM)
binding [5]: binds
Substance: TRPV4^WT-ARD (amino acids 149-397) (from UniProt Q9HBA0 149-397) (domain or fragment)
